The values that follow come from the supplement of paper PMC8047034.

Where a name gives a salt, the structure may show the parent alone. Some of the results follow. Most values come without repeats; read them as rough.

One assay has as its system OVCAR4. Put plainly: log2 surviving fraction (library drug vs vehicle, or drug + carboplatin vs carboplatin alone; relative to plate median); ovarian cancer lines: OVCAR4 is platinum-sensitive and Ov4Carbo platinum-resistant; higher = more cell survival. Particulars: library drug concentration 10 µM, 7 days.
In a further assay the test system is Ov4Carbo. The assay is described as above. Particulars: library drug concentration 10 µM, 7 days.

Consider `CC1(O)CCOC(=O)C1` (racemic) [DL-Mevalonic Acid Lactone], for which the log2 surviving fraction with OVCAR4 (carboplatin co-treatment 0 µM) was -0.164; with OVCAR4 (carboplatin co-treatment 5 µM), -3.11; with Ov4Carbo (carboplatin co-treatment 0 µM) it was 1.16; in the assay with Ov4Carbo (carboplatin co-treatment 5 µM), -0.31.
As to `CC(O)(P(=O)(O)O)P(=O)(O)O` [Etidronate (Didronel)], the log2 surviving fraction was 0.597 in the assay with OVCAR4 (carboplatin co-treatment 0 µM), 1.33 in the assay with OVCAR4 (carboplatin co-treatment 5 µM), 0.8 with Ov4Carbo (carboplatin co-treatment 0 µM) and 0.244 with Ov4Carbo (carboplatin co-treatment 5 µM).
Taken in the same sequence, the figures for `Nc1nc2n[nH]nc2c(=O)[nH]1` [Azaguanine-8] were -2.78, -2.67, -3.18 and -4.13.
Taken in the same sequence, the figures for `CNC1CCCN(c2c(F)cc3c(=O)c(C(=O)O)cn(C4CC4)c3c2OC)C1` (stereo not given) [Balofloxacin] were 1.64, 1.51, -0.185 and 1.32.
Taken in the same sequence, the figures for `CC12CC3CC(C)(C1)CC(N)(C3)C2` [Memantine HCl (Namenda)] were -0.539, 0.0762, -1.36 and -0.914.
In the case of `CN(C)CCN1C(=O)c2ccccc2N(C)c2ccccc21` [Dibenzepine HCl], the log2 surviving fraction in the assay with OVCAR4 (carboplatin co-treatment 0 µM) is -0.0117; in the assay with OVCAR4 (carboplatin co-treatment 5 µM), 0.111; with Ov4Carbo (carboplatin co-treatment 0 µM), 0.458; with Ov4Carbo (carboplatin co-treatment 5 µM) it was -0.585.
The like results for `CCCCCCCN(CC)CCCC(O)c1ccc(NS(C)(=O)=O)cc1` (stereo not given) [Ibutilide fumarate] were, in that order, -1.08, -1.43, -1.15 and -1.48.
Taken in the same sequence, the figures for `CC(C)(OCc1nn(Cc2ccccc2)c2ccccc12)C(=O)O` [Bindarit] were 1.24, 0.344, 0.493 and 0.267.
Taken in the same sequence, the figures for `O=C[C@H](O)[C@@H](O)[C@H](O)CO` [Xylose] were -0.17, 0.326, -0.315 and -0.647.
Regarding `C=Cc1c(C)c2cc3nc(cc4[nH]c(cc5nc(cc1[nH]2)C(C)=C5CCC(=O)O)c(CCC(=O)OC)c4C)[C@@]1(C)C3=CC=C(C(=O)OC)[C@H]1C(=O)OC` [Verteporfin (Visudyne)], the log2 surviving fraction is -0.752 with OVCAR4 (carboplatin co-treatment 0 µM), -1.4 in the assay with OVCAR4 (carboplatin co-treatment 5 µM), -3.44 in the assay on Ov4Carbo (carboplatin co-treatment 0 µM) and -1.04 with Ov4Carbo (carboplatin co-treatment 5 µM).
